Laboratory results reported in paper PMC12820563, “FoxP3 forms a head-to-head dimer in vivo and stabilizes its multimerization on adjacent microsatellites”.
The other results are listed elsewhere or left out.

Molecular target: T1, MBP-FoxP1dN (Mus musculus, UniProt P58462 326-579)
T1 sequence: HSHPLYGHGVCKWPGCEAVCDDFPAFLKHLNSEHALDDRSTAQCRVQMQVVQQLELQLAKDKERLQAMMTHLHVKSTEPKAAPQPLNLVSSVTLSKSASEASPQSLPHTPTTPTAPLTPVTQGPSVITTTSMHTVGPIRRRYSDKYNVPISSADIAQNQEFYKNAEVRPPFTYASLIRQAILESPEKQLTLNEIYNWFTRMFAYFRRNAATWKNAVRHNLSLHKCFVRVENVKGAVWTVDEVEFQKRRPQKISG
Assay: PD-seq (MBP pull-down with sequencing); 20 mM Tris-HCl pH 7.5, 100 mM NaCl, 1.5 mM MgCl2, 0.4 uM protein, 0.1 uM dsDNA library, 30 min, room temperature, amylose pull-down; high values mean tight binding
Conditions: protein: recombinant; tags: His6-MBP; chain copies: 2; dsDNA, one strand shown
In short: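 In Tris pH 7.5 buffer with NaCl and MgCl2, 0.4 µM His6-MBP-tagged mouse FoxP3 or FoxP1 fragment lacking the N-terminus, from E. coli, met 0.1 µM Klenow-filled double-stranded degenerate DNA library for 30 min at room temperature. Three washes on amylose resin followed capture of the complexes, then proteinase K release of DNA, PCR barcoding and Illumina sequencing. Binding is taken as pooled-replicate reads-per-million enrichment of pull-down relative to input.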

Sequence	binding signal
GATGATTGTTCTCCCAGCTGATGAATTCTTTCCATCGAGTAAACAAATTTTCCTAATCTTTCTGTTCAAGCGCCATCTAC	0.967 RPM ratio (pull-down/input)
GATGATTGTTCTCCCAGCTGATGAATTCGAAGAGTCGAGTAAACAAATTTTCCTAATCTTTCTGTTCAAGCGCCATCTAC	0.729 RPM ratio (pull-down/input)
GATGATTGTTCTCCCAGCTGATGAATTTTTGAGGTCGAGTAAACAAATTTTCCTAATCTTTCTGTTCAAGCGCCATCTAC	0.794 RPM ratio (pull-down/input)
GATGATTGTTCTCCCAGCTGATGAATTGATAAGGTCGAGTAAACAAATTTTCCTAATCTTTCTGTTCAAGCGCCATCTAC	0.854 RPM ratio (pull-down/input)
GATGATTGTTCTCCCAGCTGATGAATTCTGCTGATCGAGTAAACAAATTTTCCTAATCTTTCTGTTCAAGCGCCATCTAC	1.02 RPM ratio (pull-down/input)
GATGATTGTTCTCCCAGCTGATGAATTCTGGCCTTCGAGTAAACAAATTTTCCTAATCTTTCTGTTCAAGCGCCATCTAC	0.876 RPM ratio (pull-down/input)
GATGATTGTTCTCCCAGCTGATGAATTGCGCGCATCGAGTAAACAAATTTTCCTAATCTTTCTGTTCAAGCGCCATCTAC	1.33 RPM ratio (pull-down/input)
GATGATTGTTCTCCCAGCTGATGAATTAGTACGATCGAGTAAACAAATTTTCCTAATCTTTCTGTTCAAGCGCCATCTAC	1.01 RPM ratio (pull-down/input)
GATGATTGTTCTCCCAGCTGATGAATTGAACTCATCGAGTAAACAAATTTTCCTAATCTTTCTGTTCAAGCGCCATCTAC	0.866 RPM ratio (pull-down/input)
GATGATTGTTCTCCCAGCTGATGAATTGTAGGGTTCGAGTAAACAAATTTTCCTAATCTTTCTGTTCAAGCGCCATCTAC	0.95 RPM ratio (pull-down/input)
GATGATTGTTCTCCCAGCTGATGAATTGCTTACGTCGAGTAAACAAATTTTCCTAATCTTTCTGTTCAAGCGCCATCTAC	1.61 RPM ratio (pull-down/input)
GATGATTGTTCTCCCAGCTGATGAATTAAACCCGTCGAGTAAACAAATTTTCCTAATCTTTCTGTTCAAGCGCCATCTAC	0.921 RPM ratio (pull-down/input)
GATGATTGTTCTCCCAGCTGATGAATTGGAAAGCTCGAGTAAACAAATTTTCCTAATCTTTCTGTTCAAGCGCCATCTAC	0.847 RPM ratio (pull-down/input)
GATGATTGTTCTCCCAGCTGATGAATTCATCGTGTCGAGTAAACAAATTTTCCTAATCTTTCTGTTCAAGCGCCATCTAC	0.891 RPM ratio (pull-down/input)
GATGATTGTTCTCCCAGCTGATGAATTCCTCAACTCGAGTAAACAAATTTTCCTAATCTTTCTGTTCAAGCGCCATCTAC	0.809 RPM ratio (pull-down/input)
GATGATTGTTCTCCCAGCTGATGAATTTACGCGTTCGAGTAAACAAATTTTCCTAATCTTTCTGTTCAAGCGCCATCTAC	1.28 RPM ratio (pull-down/input)
GATGATTGTTCTCCCAGCTGATGAATTCTTTATGTCGAGTAAACAAATTTTCCTAATCTTTCTGTTCAAGCGCCATCTAC	1.04 RPM ratio (pull-down/input)
GATGATTGTTCTCCCAGCTGATGAATTTCATGGCTCGAGTAAACAAATTTTCCTAATCTTTCTGTTCAAGCGCCATCTAC	0.799 RPM ratio (pull-down/input)
GATGATTGTTCTCCCAGCTGATGAATTACGGTAGTCGAGTAAACAAATTTTCCTAATCTTTCTGTTCAAGCGCCATCTAC	0.967 RPM ratio (pull-down/input)
GATGATTGTTCTCCCAGCTGATGAATTCCCTCTATCGAGTAAACAAATTTTCCTAATCTTTCTGTTCAAGCGCCATCTAC	0.946 RPM ratio (pull-down/input)

Sequence	binding signal
GATGATTGTTCTCCCAGCTGATGAATTGCTACGATCGAGTAAACAAATTTTCCTAATCTTTCTGTTCAAGCGCCATCTAC	1.01 RPM ratio (pull-down/input)
GATGATTGTTCTCCCAGCTGATGAATTACATTTCTCGAGTAAACAAATTTTCCTAATCTTTCTGTTCAAGCGCCATCTAC	1.13 RPM ratio (pull-down/input)
GATGATTGTTCTCCCAGCTGATGAATTATAGTTCTCGAGTAAACAAATTTTCCTAATCTTTCTGTTCAAGCGCCATCTAC	0.973 RPM ratio (pull-down/input)
GATGATTGTTCTCCCAGCTGATGAATTTCTGAGCTCGAGTAAACAAATTTTCCTAATCTTTCTGTTCAAGCGCCATCTAC	0.746 RPM ratio (pull-down/input)
GATGATTGTTCTCCCAGCTGATGAATTATGAACTTCGAGTAAACAAATTTTCCTAATCTTTCTGTTCAAGCGCCATCTAC	0.95 RPM ratio (pull-down/input)
GATGATTGTTCTCCCAGCTGATGAATTTGCGCTGTCGAGTAAACAAATTTTCCTAATCTTTCTGTTCAAGCGCCATCTAC	0.978 RPM ratio (pull-down/input)
GATGATTGTTCTCCCAGCTGATGAATTCTTCCATTCGAGTAAACAAATTTTCCTAATCTTTCTGTTCAAGCGCCATCTAC	0.96 RPM ratio (pull-down/input)
GATGATTGTTCTCCCAGCTGATGAATTCGTACATTCGAGTAAACAAATTTTCCTAATCTTTCTGTTCAAGCGCCATCTAC	1.1 RPM ratio (pull-down/input)
GATGATTGTTCTCCCAGCTGATGAATTCCCTAGCTCGAGTAAACAAATTTTCCTAATCTTTCTGTTCAAGCGCCATCTAC	0.679 RPM ratio (pull-down/input)
GATGATTGTTCTCCCAGCTGATGAATTCGTGTTCTCGAGTAAACAAATTTTCCTAATCTTTCTGTTCAAGCGCCATCTAC	0.9 RPM ratio (pull-down/input)
GATGATTGTTCTCCCAGCTGATGAATTACCACTCTCGAGTAAACAAATTTTCCTAATCTTTCTGTTCAAGCGCCATCTAC	0.961 RPM ratio (pull-down/input)
GATGATTGTTCTCCCAGCTGATGAATTCGTCCTGTCGAGTAAACAAATTTTCCTAATCTTTCTGTTCAAGCGCCATCTAC	0.78 RPM ratio (pull-down/input)
GATGATTGTTCTCCCAGCTGATGAATTTGTTGTTTCGAGTAAACAAATTTTCCTAATCTTTCTGTTCAAGCGCCATCTAC	2.54 RPM ratio (pull-down/input)
GATGATTGTTCTCCCAGCTGATGAATTCTGCGCTTCGAGTAAACAAATTTTCCTAATCTTTCTGTTCAAGCGCCATCTAC	0.884 RPM ratio (pull-down/input)
GATGATTGTTCTCCCAGCTGATGAATTCAGCCGATCGAGTAAACAAATTTTCCTAATCTTTCTGTTCAAGCGCCATCTAC	0.787 RPM ratio (pull-down/input)
GATGATTGTTCTCCCAGCTGATGAATTGCCAACCTCGAGTAAACAAATTTTCCTAATCTTTCTGTTCAAGCGCCATCTAC	0.93 RPM ratio (pull-down/input)
GATGATTGTTCTCCCAGCTGATGAATTTGGCCAATCGAGTAAACAAATTTTCCTAATCTTTCTGTTCAAGCGCCATCTAC	0.911 RPM ratio (pull-down/input)
GATGATTGTTCTCCCAGCTGATGAATTCGACCGCTCGAGTAAACAAATTTTCCTAATCTTTCTGTTCAAGCGCCATCTAC	0.76 RPM ratio (pull-down/input)
GATGATTGTTCTCCCAGCTGATGAATTGGCCGGCTCGAGTAAACAAATTTTCCTAATCTTTCTGTTCAAGCGCCATCTAC	0.769 RPM ratio (pull-down/input)
GATGATTGTTCTCCCAGCTGATGAATTACCAGTATCGAGTAAACAAATTTTCCTAATCTTTCTGTTCAAGCGCCATCTAC	1.09 RPM ratio (pull-down/input)
